Experimental data: the supplement of paper PMC10126150
Values marked as one replicate rest on one cluster of the flow cell; about a third of the high ones do not repeat.

system: ATP; test: switch fluorescence ratio, 500 uM ATP over buffer (Cy3 cluster intensity, sum of 5 cycles each) (fold (ratio)); higher = stronger signal-on switching upon ATP binding; sequences stand for … in TCGTCGGCAGCGTCAGATGTGTATAAGAGACAGTTTTTTTTTTTTTTTTTTTTTTTTT…TC; settings: aptamer strand: ATP DNA aptamer (quencher-CACCTGGGGGAGTATTGCGGAGGAAGG + anchor), 100 nM annealed; ATP concentration: 500 uM; one replicate
In short: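 The quencher-labelled ATP aptamer, at 100 nM, was annealed to Cy3-labelled switching-strand clusters on a modified Illumina MiSeq flow-cell. The clusters were imaged in selection buffer, then after 15 min with 500 uM ATP at 22 °C, and this buffer/ATP cycle ran five times with NaOH stripping and re-annealing between runs. Per-cluster fluorescence ratios, summed target-cycle over summed buffer-cycle Cy3 intensity, were averaged per switch-domain sequence. Clusters outside 100-1000 RFU were excluded.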
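Further: ATP exposure 15 min at 22 °C before imaging.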

| Sequence | switch fluorescence ratio |
| --- | --- |
| ACCACGCGCC | 1.19 |
| ACCACGGCTC | 0.979 |
| ACCACTTAAC | 1.11 |
| ACCAGCTCTG | 1 |
| ACCAGGTAAC | 1.04 |
| ACCAGTATGG | 0.979 |
| ACCAGTCTCA | 1 |
| ACCATATCAC | 1.12 |
| ACCATTGTTG | 1 |
| ACCCAGGGGT | 2.92 |
| ACCCATACCT | 1.37 |
| ACCCATGAGC | 1.01 |
| ACCCCGATCC | 1.03 |
| ACCCCGGACT | 1.04 |
| ACCCCGTTCT | 1.04 |
| ACCCGAAACG | 1.07 |
| ACCCGAGGAT | 1.04 |
| ACCCGCTCCG | 1.34 |
| ACCCGGAGTA | 1.11 |
| ACCCGGATAT | 1.13 |
| ACCCGGCTGA | 1.01 |
| ACCCGGGACA | 0.997 |
| ACCCGGGTGG | 1.42 |
| ACCCGTGAGA | 1.03 |
| ACCCGTGGGA | 1.03 |

| Sequence | switch fluorescence ratio |
| --- | --- |
| ACCCTCCTT | 1.07 |
| ACCCTGAGC | 1.05 |
| ACCCTGCCCA | 1.03 |
| ACCCTGCTCA | 1.01 |
| ACCCTTTCGA | 1.19 |
| ACCGAACACC | 1.36 |
| ACCGACGTGA | 3.13 |
| ACCGACTGGA | 1.03 |
| ACCGAGATGC | 2.01 |
| ACCGAGCCCC | 1.03 |
| ACCGAGTTC | 1.05 |
| ACCGCCCCCT | 1.39 |
| ACCGCGGGCA | 0.972 |
| ACCGCTCCCT | 1.39 |
| ACCGCTTTAT | 1.49 |
| ACCGGACGTC | 1.13 |
| ACCGGACTAT | 1.21 |
| ACCGGCGAAA | 1.27 |
| ACCGGGAGAC | 1.75 |
| ACCGGGGCTT | 1.11 |
| ACCGGTTGAA | 0.97 |
| ACCGTAATAT | 5.49 |
| ACCGTAGCTG | 1.25 |
| ACCGTTCTTC | 1.04 |
| ACCTAACACC | 1.35 |

| Sequence | switch fluorescence ratio |
| --- | --- |
| ACCTAATGTA | 1.04 |
| ACCTAGGCC | 0.98 |
| ACCTAGGTGT | 2.34 |
| ACCTAGTAAT | 1.06 |
| ACCTAGTACG | 1.1 |
| ACCTATTCAC | 1.08 |
| ACCTCACGGA | 1.56 |
| ACCTCACTCC | 1.84 |
| ACCTCCACTT | 1.28 |
| ACCTCCAGAT | 1.42 |
| ACCTCGAATC | 1.16 |
| ACCTCTAGTA | 1.03 |
| ACCTCTTCGA | 1.04 |
| ACCTGAATCG | 1.1 |
| ACCTGATAAT | 1.03 |
| ACCTGCCAGT | 1.05 |
| ACCTGGGTTG | 1.06 |
| ACCTGTGGCG | 1.09 |
| ACCTGTGTCG | 1.01 |
| ACCTGTTAGC | 1.01 |
| ACCTGTTTCG | 1.1 |
| ACCTTATGCA | 1.03 |
| ACCTTGTTT | 1 |
| ACCTTTTTT | 0.96 |
| ACGAAAAACT | 1.1 |

| Sequence | switch fluorescence ratio |
| --- | --- |
| ACGAAAAGAT | 1.03 |
| ACGAAAGGCC | 1.03 |
| ACGAAAGGGT | 1.05 |
| ACGAAGACAT | 0.993 |
| ACGAATTGG | 1 |
| ACGACGAGGA | 1.13 |
| ACGACGGCAA | 5.3 |
| ACGAGCGGGA | 1.03 |
| ACGAGCTCAC | 1.26 |
| ACGAGGGTTC | 1.06 |
| ACGAGTAAAT | 1 |
| ACGAGTAGGG | 0.973 |
| ACGAGTATTT | 1.02 |
| ACGAGTCTTT | 0.983 |
| ACGATACTTG | 1.34 |
| ACGATAGATT | 1.05 |
| ACGATCACGC | 1.29 |
| ACGATCGTGG | 1 |
| ACGATTTGCC | 1.05 |
| ACGATTTTAT | 0.983 |
| ACGATTTTGA | 0.987 |
| ACGCAGTACC | 2.98 |
| ACGCATCGCC | 1.2 |
| ACGCATGTAT | 1.03 |
| ACGCATTTGA | 1.13 |

| Sequence | switch fluorescence ratio |
| --- | --- |
| ACGCCATAAT | 1.2 |
| ACGCCATTGT | 1.04 |
| ACGCCCGATA | 1.12 |
| ACGCCCTCGC | 1.28 |
| ACGCCGGTTG | 0.977 |
| ACGCCGTTGT | 1.3 |
| ACGCCTCTGT | 1.04 |
| ACGCCTTTTG | 0.956 |
| ACGCGACACA | 1.13 |
| ACGCGCGGGG | 1.05 |
| ACGCGCTAGT | 0.999 |
| ACGCGGCTC | 1.12 |
| ACGCGTTGAA | 1.03 |
| ACGCGTTGGG | 0.933 |
| ACGCTAACTA | 1.3 |
| ACGCTACGCG | 1.04 |
| ACGCTAGTTC | 1.05 |
| ACGCTATTAA | 1.25 |
| ACGCTCTATG | 1.05 |
| ACGCTCTGGT | 1.28 |
| ACGCTTAT | 1.1 |
| ACGGACGGAT | 1.08 |
| ACGGACTGCC | 1.15 |
| ACGGACTGTG | 1.05 |
| ACGGAGACAA | 6.58 |

| Sequence | switch fluorescence ratio |
| --- | --- |
| ACGGAGTCCA | 0.965 |
| ACGGATTCGA | 0.982 |
| ACGGATTGAG | 0.973 |
| ACGGCAAAGA | 1.04 |
| ACGGCATACA | 1.32 |
| ACGGCGAGAC | 3 |
| ACGGCTCGGG | 0.989 |
| ACGGCTGTAG | 1 |
| ACGGGACCCC | 1.15 |
| ACGGGCGCGG | 0.946 |
| ACGGGCGTGC | 0.989 |
| ACGGGTTGCT | 1.01 |
| ACGGTAACGG | 0.999 |
| ACGGTAGGCG | 1.01 |
| ACGGTCAATC | 1.39 |
| ACGGTCAGCC | 1.05 |
| ACGGTCTTTA | 0.98 |
| ACGGTGACCT | 1.28 |
| ACGGTGCAGC | 1.07 |
| ACGGTTAAGC | 1.06 |
| ACGGTTCCTT | 1.11 |
| ACGGTTCTAT | 1.12 |
| ACGGTTGCGT | 0.957 |
| ACGGTTGTAA | 1.05 |
| ACGGTTTATT | 1.04 |

| Sequence | switch fluorescence ratio |
| --- | --- |
| ACGTAATCTC | 1.83 |
| ACGTAGTCGA | 1.03 |
| ACGTAGTGAT | 1.04 |
| ACGTATTCTA | 1.09 |
| ACGTCACGAT | 1.39 |
| ACGTCTATTC | 1.12 |
| ACGTCTGTTC | 1.02 |
| ACGTCTTGTT | 0.974 |
| ACGTGAACGT | 1.04 |
| ACGTGCTCTA | 1.05 |
| ACGTGGATGG | 0.966 |
| ACGTGGCAGA | 0.964 |
| ACGTGGCGTA | 0.942 |
| ACGTGTTGCT | 0.995 |
| ACGTTACCTA | 1.45 |
| ACGTTATCCG | 1.03 |
| ACGTTGAAAT | 1.05 |
| ACGTTGGCCA | 0.995 |
| ACGTTGGCCT | 1.04 |
| ACGTTGTAGG | 1.03 |
| ACGTTTGTAG | 0.998 |
| ACTAAACTAT | 1.11 |
| ACTAAAGTCG | 1.05 |
| ACTAACCTGG | 1.16 |
| ACTAAGCCAG | 1.05 |

| Sequence | switch fluorescence ratio |
| --- | --- |
| ACTAATAATT | 1 |
| ACTAATGTTC | 1.03 |
| ACTACCACGG | 2.44 |
| ACTACGCGGG | 1.08 |
| ACTACTCGGG | 1.05 |
| ACTACTCTG | 1.01 |
| ACTACTGCAC | 1.74 |
| ACTAGATCTC | 0.953 |
| ACTAGCCCAG | 1.77 |
| ACTAGGTCTG | 1 |
| ACTATAGT | 1.03 |
| ACTATATGGG | 1.08 |
| ACTATCCCAC | 3.34 |
| ACTATCG | 1.09 |
| ACTATCTGCG | 1 |
| ACTATGCGTT | 1.07 |
| ACTATGGGCG | 1.09 |
| ACTATTCGCG | 0.989 |
| ACTATTTAAC | 1.06 |
| ACTATTTGG | 1.01 |
| ACTCAAGCGG | 1.28 |
| ACTCAAGGGG | 1.06 |
| ACTCACTTGC | 1.27 |
| ACTCAGATTA | 1.06 |
| ACTCCAAATA | 3.67 |
